We go through 54 molecules from publication PMC4336329 (PLoS ONE, 2015).

Each structure is given as a SMILES string. The campaign covered roughly 310,000 compounds. About 14,000 (4.5%) showed an effect of 50% or more. The effect is printed as a negative number. The list shows a part of the results.
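Further: peak tail current of the secondary pulse compared with the same well before compound.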

Sequence of human ether-à-go-go-related gene (hERG) potassium channel (Q12809 whole entry, looked up): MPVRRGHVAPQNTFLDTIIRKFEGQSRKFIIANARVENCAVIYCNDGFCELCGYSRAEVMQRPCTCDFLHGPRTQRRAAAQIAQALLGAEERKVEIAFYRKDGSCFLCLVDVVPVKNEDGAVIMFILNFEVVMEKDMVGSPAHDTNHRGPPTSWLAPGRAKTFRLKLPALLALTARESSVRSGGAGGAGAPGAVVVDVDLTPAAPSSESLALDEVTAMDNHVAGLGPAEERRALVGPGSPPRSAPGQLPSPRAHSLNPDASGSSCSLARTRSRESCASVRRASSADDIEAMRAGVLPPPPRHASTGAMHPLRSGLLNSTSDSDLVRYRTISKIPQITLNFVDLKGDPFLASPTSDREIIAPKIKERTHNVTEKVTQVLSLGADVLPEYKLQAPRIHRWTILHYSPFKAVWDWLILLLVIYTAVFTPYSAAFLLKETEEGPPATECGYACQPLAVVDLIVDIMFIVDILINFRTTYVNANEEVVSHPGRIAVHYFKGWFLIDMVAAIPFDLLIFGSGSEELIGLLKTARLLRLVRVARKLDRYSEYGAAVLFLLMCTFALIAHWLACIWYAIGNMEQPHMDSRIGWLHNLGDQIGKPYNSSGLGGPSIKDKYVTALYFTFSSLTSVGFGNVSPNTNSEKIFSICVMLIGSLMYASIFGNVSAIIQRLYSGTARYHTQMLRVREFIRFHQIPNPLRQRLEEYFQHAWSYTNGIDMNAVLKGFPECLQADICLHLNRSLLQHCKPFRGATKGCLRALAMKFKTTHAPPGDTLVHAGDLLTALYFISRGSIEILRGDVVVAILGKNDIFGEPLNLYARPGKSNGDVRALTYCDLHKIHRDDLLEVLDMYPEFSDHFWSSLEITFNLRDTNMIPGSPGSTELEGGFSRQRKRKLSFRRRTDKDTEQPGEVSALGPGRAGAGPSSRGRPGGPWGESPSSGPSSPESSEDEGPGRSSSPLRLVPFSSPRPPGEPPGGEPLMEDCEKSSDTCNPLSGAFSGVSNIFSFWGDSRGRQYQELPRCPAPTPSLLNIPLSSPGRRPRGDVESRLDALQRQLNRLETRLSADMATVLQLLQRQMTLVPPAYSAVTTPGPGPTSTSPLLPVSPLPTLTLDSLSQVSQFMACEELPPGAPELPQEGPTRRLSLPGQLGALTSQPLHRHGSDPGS

The assay concerns the target human ether-à-go-go-related gene (hERG) potassium channel (human, UniProt Q12809). The assay can be described thus: primary screen, population patch clamp on CHO cells stably expressing hERG.
Take `CN(C)C(CNC(=O)c1ccc(Cl)c(S(=O)(=O)N2CCCCCC2)c1)c1ccccc1` (stereo not drawn): the “hERG current change (%, negative = inhibition) at 10uM” value is -67.5%.

`COc1ccc(OC)c(S(=O)(=O)N2CCc3ccccc32)c1`: the “hERG current change (%, negative = inhibition) at 10uM” value is reported as -6.4%.

With `Cn1c(=O)c2c(SCC(=O)Nc3ccccc3F)nc(-c3ccccc3F)nc2n(C)c1=O`, the “hERG current change (%, negative = inhibition) at 10uM” value is recorded as 6.44%.

With `O=C1CN(C(=O)COC(=O)CNC(=O)c2ccc(Br)o2)c2ccccc2N1`, the “hERG current change (%, negative = inhibition) at 10uM” value is on record as -32.1%.

As to `Cc1cc(C)cc(NC(=S)NC2CC3CCCC(C2)N3CC(C)C)c1` (stereo not drawn), the “hERG current change (%, negative = inhibition) at 10uM” value is listed as -7.32%.

On to `COc1cccc(Nc2c(F)c(OC)c(F)c(F)c2C(=O)O)c1`, for which the “hERG current change (%, negative = inhibition) at 10uM” value turned out to be 16.5%.

In the case of `Cc1nc(SCC(=O)NC2CCCC2)c2c(C)c(C)sc2n1`, the “hERG current change (%, negative = inhibition) at 10uM” value is recorded as -4.48%.

`O=C(CN1CCN(S(=O)(=O)c2ccccc2)CC1)Nc1ccc(Cl)c([N+](=O)[O-])c1`: the “hERG current change (%, negative = inhibition) at 10uM” value is listed as -65%.

`COc1ccc(C)cc1-n1c(-c2ccncc2)n[nH]c1=S`: the “hERG current change (%, negative = inhibition) at 10uM” value turned out to be 11.3%.

As for `CCN1C(=C(C#N)C#N)C=Cc2cc(C)ccc21`, the “hERG current change (%, negative = inhibition) at 10uM” value was 15.7%.

With `Cc1ccc(OC(C)C(=O)N2CC(=O)Nc3ccccc32)cc1` (stereo not drawn), the “hERG current change (%, negative = inhibition) at 10uM” value is -67.7%.

`CCCC(=O)Nc1cccc(NC(=O)c2cccc([N+](=O)[O-])c2C)c1`: the “hERG current change (%, negative = inhibition) at 10uM” value is -12.8%.

Regarding `Cc1cc(C(=O)NCc2cc(C(=O)O)oc2C)c(C)o1`, the “hERG current change (%, negative = inhibition) at 10uM” value is 4.42%.

With `Cc1noc(C)c1COc1ccccc1C(=O)N1CCN(c2cccc(Cl)c2)CC1`, the “hERG current change (%, negative = inhibition) at 10uM” value is -30.6%.

As for `CN(C[C@H](Cc1ccccc1)N(C[C@H](c1ccccc1)N(CCc1ccccc1)N=O)N=O)N=O.[Na+]`, the “hERG current change (%, negative = inhibition) at 10uM” value was -2.64%.

As for `CCOc1ccc(NC(=O)C2CC(=O)OC2c2ccccc2)cc1` (stereo not drawn), the “hERG current change (%, negative = inhibition) at 10uM” value stood at 6.5%.

Consider `COc1ccc(CNCC(O)(c2ccc(F)cc2)c2ccc(F)cc2)cc1OC`, for which the “hERG current change (%, negative = inhibition) at 10uM” value is -62.1%.

Take `Cc1cccc(NC(=O)CN(CC2CCCO2)C(=O)c2oc3ccccc3c2C)c1C` (stereo not drawn): the “hERG current change (%, negative = inhibition) at 10uM” value is listed as -11.3%.

In the case of `CCOC(=O)Cc1cnc(NC(=O)Cn2nnc(-c3ccc(OCC)cc3)n2)s1`, the “hERG current change (%, negative = inhibition) at 10uM” value was -7.58%.

For `Cc1ccc(S(=O)(=O)N(C)Cc2cc3cc(C)ccc3[nH]c2=O)cc1`, the “hERG current change (%, negative = inhibition) at 10uM” value was -3.76%.

On to `Cc1ccc2nc(SCC(=O)NCc3cccs3)[nH]c2c1`, for which the “hERG current change (%, negative = inhibition) at 10uM” value is -15.7%.

Regarding `CCCCn1c(=O)c(CCC(=O)OCC(=O)NC(=O)NCCC(C)C)nc2ccccc21`, the “hERG current change (%, negative = inhibition) at 10uM” value is listed as -9.31%.

Turning to `Brc1ccc([C@H]2CN3CCSC3=N2)cc1.O=C(O)C(=O)O`, the “hERG current change (%, negative = inhibition) at 10uM” value is listed as -35.7%.

`O=C(COC(=O)/C=C/c1cccc([N+](=O)[O-])c1)NCc1ccco1`: the “hERG current change (%, negative = inhibition) at 10uM” value is listed as 29.8%.

On to `Cc1sc2ncn(CC(=O)NCCCC(=O)N3CCN(c4ncccn4)CC3)c(=O)c2c1C`, for which the “hERG current change (%, negative = inhibition) at 10uM” value came to 7.64%.

As for `COc1ccc(NC(=O)c2cccc3c2C(=O)c2ccc(-c4cnc(OC)nc4)cc2S3(=O)=O)cc1`, the “hERG current change (%, negative = inhibition) at 10uM” value is on record as 11.8%.

Consider `CCOC(=O)C1(CCOc2ccccc2)CCN(C(=O)CCSC)CC1`, for which the “hERG current change (%, negative = inhibition) at 10uM” value is on record as -42%.

With `CC(=O)c1ccc(N2CCN(C(=O)c3ccco3)CC2)c(F)c1`, the “hERG current change (%, negative = inhibition) at 10uM” value is recorded as -25.2%.

As for `Cn1c2ccc(F)cc2c2ncn(CCN3CCOCC3)c(=O)c21`, the “hERG current change (%, negative = inhibition) at 10uM” value is -43.1%.

For the molecule `CCC(C)C(NC(=O)c1ccccc1NC(=O)c1ccccc1)C(=O)O` (stereo not drawn), the “hERG current change (%, negative = inhibition) at 10uM” value was -10.2%.

Consider `Cc1c(C#N)sc2nc(-c3ccccc3)nc(N3CCCC3)c12`, for which the “hERG current change (%, negative = inhibition) at 10uM” value is 18.1%.

Take `Cl.c1ccc(COc2ccccc2CNC23CC4CC(CC(C4)C2)C3)cc1`: the “hERG current change (%, negative = inhibition) at 10uM” value is reported as -83.6%.

Take `CSc1ncccc1C(=O)OCC(=O)c1ccc(Br)s1`: the “hERG current change (%, negative = inhibition) at 10uM” value was -1.56%.

Take `Nc1nc2c(c(=O)[nH]1)C(c1ccccc1)C1=C(N2)c2ccccc2C1=O` (stereo not drawn): the “hERG current change (%, negative = inhibition) at 10uM” value was 1.33%.

For `CCOc1ccccc1OCCCC(=O)Nc1ccc(Cl)c(S(=O)(=O)N2CCOCC2)c1`, the “hERG current change (%, negative = inhibition) at 10uM” value is listed as -26%.

Turning to `O=C(O)CC1Sc2ccccc2NC1=O` (stereo not drawn), the “hERG current change (%, negative = inhibition) at 10uM” value was -13.4%.

On to `COCCN=c1scc(-c2ccco2)n1/N=C/c1ccc(O)c(O)c1O`, for which the “hERG current change (%, negative = inhibition) at 10uM” value came to 2.11%.

`COC(=O)C1=C(C(=O)OC)[C@@H]2Nc3ccccc3[C@@]23C[C@@H](C(=O)OC)N(C(=O)c2cccs2)C3=N1`: the “hERG current change (%, negative = inhibition) at 10uM” value is -39.8%.

On to `CCOP(=O)(OCC)C(NC(=O)c1ccc(OC)cc1)C(Cl)(Cl)Cl` (stereo not drawn), for which the “hERG current change (%, negative = inhibition) at 10uM” value was 0.174%.

Regarding `CCOC(=O)N1CCN(C(=O)c2cccc(S(=O)(=O)Nc3ccc(Br)cc3)c2)CC1`, the “hERG current change (%, negative = inhibition) at 10uM” value is recorded as -23.9%.

Consider `O=C(CC1(O)C(=O)Nc2ccccc21)c1cccnc1` (stereo not drawn), for which the “hERG current change (%, negative = inhibition) at 10uM” value is 2.13%.

Turning to `Cn1c(CSc2nc3ccccc3s2)nnc1SCC(=O)NCc1cccnc1`, the “hERG current change (%, negative = inhibition) at 10uM” value is on record as -5.4%.

As for `CCOC(=O)C1=C(COC(=O)Cc2c(F)cccc2Cl)NC(=O)NC1C` (stereo not drawn), the “hERG current change (%, negative = inhibition) at 10uM” value is recorded as -6.5%.

As to `COc1cc(C(=O)N/N=C/c2ccccn2)cc(OC)c1OC`, the “hERG current change (%, negative = inhibition) at 10uM” value is reported as 6.72%.

On to `COC(=O)c1cccc(Nc2ncnc3sccc23)c1`, for which the “hERG current change (%, negative = inhibition) at 10uM” value is listed as -14.4%.

On to `N#Cc1cccc(NC(=S)Nc2ccccc2)c1`, for which the “hERG current change (%, negative = inhibition) at 10uM” value is -0.837%.

For the molecule `CCN(CC)CCNC(=O)c1ccc(NC(=O)c2cccc(S(=O)(=O)[N-]c3ccc(C)cc3)c2)cc1.[K+]`, the “hERG current change (%, negative = inhibition) at 10uM” value is reported as -8.36%.

For `CC(C)(C)C(=O)CN1C(=O)NC(C)(Cc2ccc3c(c2)OCO3)C1=O` (stereo not drawn), the “hERG current change (%, negative = inhibition) at 10uM” value was found to be 6.06%.

As for `CC(C)(C)NC(=O)CN(c1cccc([N+](=O)[O-])c1)S(=O)(=O)c1ccccc1`, the “hERG current change (%, negative = inhibition) at 10uM” value is listed as -11.5%.

Turning to `COc1cc(/C=C2/NC(=O)NC2=O)cc(Br)c1OCc1ccc(C(=O)O)cc1`, the “hERG current change (%, negative = inhibition) at 10uM” value came to 23.9%.

Regarding `NS(=O)(=O)c1ccc(NC(=O)CCC(=O)c2ccc(Cl)s2)cc1`, the “hERG current change (%, negative = inhibition) at 10uM” value is on record as 13.6%.

On to `CCOc1cc(C(=O)NCCN2C(=O)S/C(=C\c3cccnc3)C2=O)cc(OCC)c1OCC`, for which the “hERG current change (%, negative = inhibition) at 10uM” value is on record as -1.8%.

With `O=C(Cc1c(F)cccc1Cl)N1CCN(S(=O)(=O)c2cccs2)CC1`, the “hERG current change (%, negative = inhibition) at 10uM” value is 9.59%.

In the case of `COc1ccc(C(=O)NCC(=O)N2CCN(c3ccccc3)CC2)cc1`, the “hERG current change (%, negative = inhibition) at 10uM” value is reported as -0.333%.
